From US12479847B2 (DANA-FARBER CANCER INSTITUTE, INC., priority 2019, dated 2025)

Key:
[1] = molecular target: T1, panel of 468 kinases (Homo sapiens, UniProt Q5S007, G2019S); experiment: KINOMEscan (ScanMAX) kinase profiling; type: binding; conditions: LRRK2(G2019S), read-out: % control
T1 construct: purchased KINOMEscan (ScanMAX) service
Method: The kinase selectivity of inventive compounds 12, 75, and 77 was evaluated by KINOMEscan®. KINOMEscan® (ScanMAX™) analysis was performed against a near comprehensive panel of 468 kinases. The control percentage (% control) for inventive compounds at 1 μM in DMSO was determined by Equation 1: % control=(inventive compound−positive control)/(negative control−positive control)×100%, Equation 1
wherein the positive control is a compound with a % control value of 0% relative light units (RLU), and the negative control (i.e., DMSO) has % control value of 100% RLU. The enzyme selectivity in the present invention is defined as follows: inventive compounds are considered active for an enzyme when the observed % control is less than 35% (<35%).

[2] = molecular target: human LRRK2(G2019S) kinase (Homo sapiens, UniProt Q5S007, G2019S); experiment: biochemical
In short: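 Human LRRK2 (25 ng) or LRRK2(G2019S) (16 ng) reacted with 10 μM ATP and 0.2 μg substrate in Tris pH 7.4, MgCl2, DTT, BSA for 60 min at 25 °C. ADP measured by ADP-Glo luminescence; 12-point 1:3 dilutions from 50 μM to 0.01 nM, 0.5% DMSO controls, curve-fitted.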

Compound: CNc1nc(Nc2ccc(S(=O)(=O)N3CCC(N4CCOCC4)CC3)cc2OC)nc2[nH]cc(Cl)c12 [Compound 12, 5-chloro-N2-(2-methoxy-4-((4-morpholinopiperidin-1-yl)sulfonyl)phenyl)-N4-methyl-7H-pyrrolo[2,3-d]pyrimidine-2,4-diamine]
- remaining binding at 1 µM [1]: 1.5%
- IC50 [2]: < 10 nM

Compound: CNc1nc(Nc2ccc(C(=O)N3CCC(N4CCOCC4)CC3)c3c2OCO3)nc2[nH]cc(Cl)c12 [Compound 75, (7-((5-chloro-4-(methylamino)-7H-pyrrolo[2,3-d]pyrimidin-2-yl)amino)benzo[d][1,3]dioxol-4-yl)(4-morpholinopiperidin-1-yl)methanone]
- remaining binding at 1 µM [1]: 0.3%
- IC50 [2]: < 10 nM

Compound: CNc1nc(Nc2ccc(P3(=O)CCN(C4CCOCC4)CC3)cc2OC)nc2[nH]cc(Cl)c12 [Compound 77, 4-(4-((5-chloro-4-(methylamino)-7H-pyrrolo[2,3-d]pyrimidin-2-yl)amino)-3-methoxyphenyl)-1-(tetrahydro-2H-pyran-4-yl)-1,4-azaphosphinane 4-oxide]
- remaining binding at 1 µM [1]: 2.1%
- IC50 [2]: < 10 nM

Compound: CCCNc1nc(Nc2ccc(P3(=O)CCN(C(C)=O)CC3)cc2OC)nc2[nH]cc(Cl)c12 [Compound 100, 1-(4-(4-((5-chloro-4-(propylamino)-7H-pyrrolo[2,3-d]pyrimidin-2-yl)amino)-3-methoxyphenyl)-4-oxido-1,4-azaphosphinan-1-yl)ethan-1-one]
- IC50 [2]: < 10 nM

Compound: CCNc1nc(Nc2ccc(C(=O)N3CCOCC3)c3c2OCC3)nc2[nH]cc(Cl)c12 [Compound 101, (7-((5-chloro-4-(ethylamino)-7H-pyrrolo[2,3-d]pyrimidin-2-yl)amino)-2,3-dihydrobenzofuran-4-yl)(morpholino)methanone]
- IC50 [2]: < 10 nM

Compound: CCCNc1nc(Nc2ccc(C(=O)N3CCC(N4CCOCC4)CC3)c3c2OCC3)nc2[nH]cc(Cl)c12 [Compound 102, (7-((5-chloro-4-(propylamino)-7H-pyrrolo[2,3-d]pyrimidin-2-yl)amino)-2,3-dihydrobenzofuran-4-yl)(4-morpholinopiperidin-1-yl)methanone]
- IC50 [2]: < 10 nM

Compound: O=C(c1ccc(Nc2nc(NC3CCC3)c3c(Cl)c[nH]c3n2)c2c1CCO2)N1CCC(N2CCOCC2)CC1 [Compound 103, (7-((5-chloro-4-(cyclobutylamino)-7H-pyrrolo[2,3-d]pyrimidin-2-yl)amino)-2,3-dihydrobenzofuran-4-yl)(4-morpholinopiperidin-1-yl)methanone]
- IC50 [2]: < 10 nM

Compound: COc1cc(P2(=O)CCN(C3CC3)CC2)ccc1Nc1nc(NC2CCC2)c2c(Cl)c[nH]c2n1 [Compound 104, 4-(4-((5-chloro-4-(cyclobutylamino)-7H-pyrrolo[2,3-d]pyrimidin-2-yl)amino)-3-methoxyphenyl)-1-cyclopropyl-1,4-azaphosphinane 4-oxide]
- IC50 [2]: < 10 nM

Compound: CCNc1nc(Nc2ccc(C(=O)N3CCC(N4CCOCC4)CC3)c3c2OCC3)nc2[nH]cc(Cl)c12 [Compound 105, (7-((5-chloro-4-(ethylamino)-7H-pyrrolo[2,3-d]pyrimidin-2-yl)amino)-2,3-dihydrobenzofuran-4-yl)(4-morpholinopiperidin-1-yl)methanone]
- IC50 [2]: < 10 nM
